Source: PubChem BioAssay AID686970 (National Center for Advancing Translational Sciences (NCATS), 2013)
Hit rate of the full screen: of about 360,000 compounds, about 6,000 (1.7%) were called active. This list was built around the results that the source calls inconclusive (neither active nor inactive); the mix of calls is not that of the screen. Calls follow the shape of the dose curve; as a rule, active = well fitted cell-killing curve with a large enough effect; inconclusive = small, poorly fitted or top-dose-only effect, or effect the other way; inactive = flat fitted curve, though single readings scatter. No potency is given beside an inconclusive call; the fits are too rough.

Test: qHTS for induction of synthetic lethality in tumor cells producing 2HG: qHTS for the HT-1080-NT fibrosarcoma cell line;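 also: NT is the 2HG producing partner of a matched IDH1 knockdown line; nearly all actives have a fitted effect of over 55% in size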;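 as to activity, negative = less viability: 0% = DMSO-treated cells and -100% = media-only wells without cells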
Details: HT-1080-NT fibrosarcoma viability, CellTiter-Glo ATP luminescence, 48 h; activity, negative = less viability: at 46.1 µM (top of the series) unless noted
How it was run: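 Toxicity toward the 2HG-producing NT line was scored as %Activity, normalised to DMSO and no-cell wells, from CellTiter-Glo luminescence after 48 hours' treatment.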
Potency is read from the fitted curve at half-maximal effect; tags tell the direction and shape of the fitted curve.

Structure (SMILES)	activity, negative = less viability	Potency
CC1(C)CC(=O)C2=C(C1)OC1=C(C(=O)CC(C)(C)C1)C2c1ccc(O)c([N+](=O)[O-])c1	inactive: 1.1%	
CN(C)c1ncc(C2=C(Cl)C(=O)C(N3CCCC3)=C(Cl)C2=O)s1		inconclusive [cytotoxic, single point]
O=C(CSc1ccc(F)cc1)Nc1ccccc1Br		inconclusive [rising, single point]
N#CC1(Cc2ccccc2)c2ccccc2C=CN1C(=O)c1ccccc1 (stereo not drawn)	inactive: 0.848%	
Cc1cc(NC(=O)c2ccccc2Cl)c(C(C)C)cc1O	inactive: 3.97%	
O=C(NNC(=O)c1cc(-c2ccc(Cl)c(Cl)c2)nc2ccccc12)Nc1ccccc1		inconclusive [cytotoxic, single point]
Nc1ccc(Nc2ccccc2N)cc1		inconclusive [cytotoxic, single point]
CN1CCN(c2nc(-c3ccccc3)c3cc(Cl)ccc3n2)CC1		inconclusive [cytotoxic, single point]
CCOc1cc(/C=C2\N=C(SC(C)C(N)=O)N(c3ccc(OC(F)F)cc3)C2=O)ccc1O (stereo not drawn)		inconclusive [cytotoxic, partial curve]
O=[N+]([O-])c1ccc(NC(=S)NCCc2ccccc2)cc1		inconclusive [cytotoxic, single point]
CCOC(=O)[C@]12CCC=C1N(Cc1cccc3ccccc13)C(=O)[C@H](CC(=O)N1CCSCC1)C2		inconclusive [cytotoxic, single point]
CC(C)N(c1ccccc1)c1ccc(NC(=S)NCCN(C)C)cc1		active: 16.4 µM
COc1ccc(-c2cnc(N)nc2-c2ccc(OCc3ccccc3)cc2O)cc1		inconclusive [cytotoxic, single point]
O=C(O)c1ccccc1-c1c2cc(I)c(=O)c(I)c-2oc2c(I)c(O)c(I)cc12	inactive: -23.7%	
CO[C@@H]1CN(C)C(=O)c2cc(NC(=O)NC3CCCCC3)ccc2OC[C@@H](C)N(CCc2ccccc2)C[C@H]1C	inactive: -13.7%	
COc1ccc(S(=O)(=O)NNS(=O)(=O)c2ccc(OC)c(OC)c2)cc1OC		inconclusive [rising, partial curve]
CC1SC(C)C(=O)N(CC(=O)Nc2ccc([N+](=O)[O-])cc2)C1=O (stereo not drawn)	inactive: -0.652%	
c1ccc(OCCNc2ccn3nc(-c4ccc(OCCN5CCOCC5)cc4)cc3n2)cc1		inconclusive [cytotoxic, single point]
COc1ccc(C(=O)C2CCCN(Cc3cccn3-c3ccccn3)C2)c(C)c1 (stereo not drawn)		active: 8.2 µM
Cn1cccc1C(=O)OCC(=O)Nc1ccc2c(c1)OCCO2	inactive: 12.8%	
c1ccc([C@H]2CNCCN2CCc2cccc3ccccc23)cc1		inconclusive [cytotoxic, single point]
Cn1cccc1/C=N/NC(=O)c1cc(-c2cccs2)nc2ccccc12		inconclusive [cytotoxic, partial curve]
CCS(=O)(=O)Nc1ccc(C2=NN(S(=O)(=O)c3ccc(F)cc3)C(c3ccco3)C2)cc1 (stereo not drawn)		inconclusive [cytotoxic, single point]
CN(C)S(=O)(=O)c1ccc(C(=O)Nc2nc(-c3cc4ccccc4o3)cs2)cc1		inconclusive [cytotoxic, partial curve, poor fit]
COc1ccc([C@H]2CC(=O)C=C(c3cc(C=O)ccc3OC)C2)cc1		inconclusive [cytotoxic, partial curve]

Structure (SMILES)	activity, negative = less viability	Potency
COc1ccc(Cn2nnnc2C(c2ccc(C)cc2)N2CCN(C3CCCC3)CC2)cc1 (stereo not drawn)		inconclusive [cytotoxic, single point]
COc1ccc(CCNC/C=C/c2ccccc2)cc1	inactive: -21.1%	
COc1cc(C(=O)Nc2ccc(C(=O)O)cc2)ccc1OC(C)=O		inconclusive [cytotoxic, single point]
CCCn1nc(NC(=O)c2cccs2)c2cc3ccccc3nc21	inactive: -1.04%	
COc1ccccc1N1C(=O)CC(Sc2n[nH]c(-c3cccc(C)c3)n2)C1=O (stereo not drawn)	inconclusive: 39.2%	
Fc1ccc(COc2ccc(Br)cc2CNCC2CCCO2)cc1 (stereo not drawn)		inconclusive [cytotoxic, single point]
COc1cc(Cl)c(NC2=CC(=O)C(=O)c3ccccc32)c(OC)c1		active: 9.2 µM
CC(C)CCNC(=O)COC(=O)/C=C/c1ccc2ccccc2n1		inconclusive [rising, single point]
C(=C\c1nc(N2CCCC2)c2ccccc2n1)/c1ccccc1		active: 25.9 µM
Cc1c(NC(=O)c2cc3c(s2)-c2ccccc2OC3)cccc1[N+](=O)[O-]		inconclusive [cytotoxic, single point]
CC(C)C1OC(CCc2ccccc2)Cc2[nH][nH]c(=O)c21 (stereo not drawn)		inconclusive [cytotoxic, single point]
Cc1nc2c(OCCOc3ccc(F)cc3)cccn2c1N(C)C(=O)CCC1CCCC1		inconclusive [cytotoxic, single point]
Cc1ccc(N(CC(=O)Nc2cc(C)cc(C)c2)S(=O)(=O)c2c(C)noc2C)cc1		active: 18.4 µM
CCC(c1nnnn1-c1ccc2c(c1)OCCO2)N1CCN(c2cccc(C)c2C)CC1 (stereo not drawn)		inconclusive [cytotoxic, single point]
Cc1ccc(N2CC(C(=O)N3CCC(C(=O)Nc4cccc(Br)c4)CC3)CC2=O)cc1 (stereo not drawn)	inactive: -0.308%	
CC(C)N1CCSC1=S	inactive: 10.7%	
c1nc(N2CCCC2)c2[nH]cnc2n1	inactive: 11.2%	
OC[C@@H]1CN(Cc2ccc(Cl)cc2)C[C@H](n2cnc3c(N4CCN(c5ccccc5)CC4)ncnc32)O1		active: 18.4 µM
O=C(COC(=O)c1ccc(Oc2ccccc2)cc1)Nc1nnc(-c2ccccc2)o1		inconclusive [cytotoxic, single point]
COc1ccc(CCN2CC(C(=O)NCCc3ccccc3)CC2=O)cc1OC (stereo not drawn)	inactive: -1.94%	
CC1(C(=O)NCc2cccnc2)Cc2c(-c3cccc(C(F)(F)F)c3)ccnc2O1 (stereo not drawn)		inconclusive [cytotoxic, single point]
CCCC(=O)N1CCC1(C)C(=O)Nc1ccc2nc(C)ccc2c1 (stereo not drawn)		inconclusive [rising, single point]
S=C(NCCCN1CCOCC1)N1CCN(c2cccc(Cl)c2)CC1	inconclusive: -32.1% [cytotoxic]	
Cc1ccc(C2CC(C(F)(F)F)n3nc(C(=O)NCc4c(C)nn(C)c4C)c(Cl)c3N2)cc1 (stereo not drawn)		inconclusive [cytotoxic, single point]
Cn1c(=O)c2ccccc2n2c(CCl)nnc12		inconclusive [cytotoxic, single point]

Structure (SMILES)	activity, negative = less viability	Potency
CC1=CC(C)(C)N(S(=O)(=O)c2ccc(C)cc2)c2ccccc21		active: 6.31 µM
CCC(=O)Nc1ccc(C(=O)NNC(=O)C(c2ccccc2)c2ccccc2)cc1		inconclusive [cytotoxic, single point]
O=C(/C=C/[C@H]1O[C@@H](n2ccc(=O)[nH]c2=O)[C@H](O)[C@@H]1O)NC(c1ccccc1)c1ccccc1	inactive: 17.4%	
CCOc1cc(NC(=O)c2cccs2)c(OCC)cc1NC(=O)c1ccccn1		inconclusive [rising, single point]
Fc1ccc(SCCc2ccccn2)cc1		inconclusive [rising, partial curve, poor fit]
Cc1ccc(NC(=O)CCn2c(=O)c3cccn3c3ccccc32)c(C)c1	inactive: -0.956%	
CCc1ccc(NC(=S)NC(=O)CC(C)C)cc1	inactive: 22.3%	
COc1ccc(NS(=O)(=O)c2cc3c4c(c2)CCN4C(=O)CC3)cc1OC	inactive: 4.38%	
COc1ccccc1CNC(=O)c1ccoc1C	inactive: 19.5%	
Cc1cc(NC(=O)CSc2ccc3nnc(-c4cccc(F)c4)n3n2)no1	inactive: -15.5%	
C[C@@H]1CN([C@H](C)CO)C(=O)CCCn2nncc2CO[C@H]1CN(C)C(=O)NC1CCCCC1	inconclusive: 38.4%	
COc1ccc(C2c3c4c(n(C)c3CCN2C)CCN(C)C4c2ccc(OC)cc2)cc1 (stereo not drawn)		inconclusive [cytotoxic, partial curve]
COCCN(C(=O)CSc1nc2ccccc2c(=O)n1CC(C)C)c1c(N)n(Cc2ccccc2)c(=O)[nH]c1=O	inactive: -4.46%	
O=C(CN1C(=O)NC2(CCCCCCC2)C1=O)Nc1ccc(Cl)cc1		inconclusive [cytotoxic, single point]
N#CC(c1ccccc1)C(CC(=NO)c1ccccc1)c1ccccc1 (stereo not drawn)		inconclusive [cytotoxic, single point]
CN(C)CCNC(=O)c1cccc2c(-c3ccc(F)c(F)c3)coc12		inconclusive [cytotoxic, single point]
O=c1cc(-c2ccccc2)[nH]n1-c1ccc([N+](=O)[O-])cc1		inconclusive [cytotoxic, single point]
CCOc1ccc(NC(=O)CCN2C(=O)c3ccccc3C2=O)cc1	inactive: 22.7%	
Cc1c(O)ccc(/C=N/Nc2nc(-c3cccnc3)nc3ccccc23)c1O		active: 17.8 µM
CC(=O)NC(Cc1ccccc1)C(=O)Oc1ccc2ccccc2c1 (stereo not drawn)	inactive: -5.49%	
CCO[C@@H]1OC(C(=O)NC2CC2)=C[C@H](C2CCCCC2)[C@H]1CCCO	inactive: 6.51%	
O=C(Nc1ccccc1C(=O)NCCCN1CCOCC1)c1ccccc1	inactive: 15.2%	
CCc1nc2ccc(C(=O)NCCOc3ccc(OC)cc3)cn2c1N(CCC(C)C)CCN(C)C		inconclusive [cytotoxic, partial curve, poor fit]
